# Assay results: PubChem BioAssay AID588855 (National Center for Advancing Translational Sciences (NCATS), 2011)
# Out of some 410,000 compounds screened, about 5,000 (1.2%) were called active. Inconclusive results, whose numbers are uncertain, are shown with a selection of clear calls. Calls come from the whole dose curve; as a rule, active = well fitted inhibition curve with a large enough effect; inconclusive = small, poorly fitted or top-dose-only effect; inactive = no such curve, though single readings can be large or run the other way. Potencies beside an inconclusive call are fits to weak or partial responses and may not hold up.
# Assay: qHTS for Inhibitors of TGF-b; note: nearly all actives have a fitted effect of over 65% in size
# Details: HepG2 CAGA-GFP TGF-b/SMAD3 reporter, GFP fluorescence, 18 h, TGF-beta stimulated, 500 pg/mL final; series mostly up to 46.1 µM
# Procedure, shortened: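 Inhibition of TGF-beta-driven CAGA-GFP reporter expression in HEPG2 cells is measured by cellular GFP fluorescence after 18 h stimulation with 500 pg/mL recombinant TGF-beta in 1% FBS medium at 37 degrees C.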
# Potency is the fitted concentration of half-maximal effect; tags give direction and shape of the fitted curve.
row,Structure (SMILES),Potency
1,Clc1ccc(-c2noc3ncnc(NCCCN4CCN(c5ccccc5)CC4)c23)cc1,"inconclusive: 25.1 µM [inhibitor, single point]"
2,CCOC(=O)N1CCc2c(sc(NCc3ccc(OCC)cc3)c2C(=O)Nc2ccc(OC)cc2OC)C1,"inconclusive: 31.6 µM [inhibitor, single point]"
3,Cc1noc(C)c1C(=O)OCC(=O)Nc1cc(Cl)ccc1Oc1ccccc1,"inconclusive: 35.5 µM [inhibitor, single point]"
4,CC(=O)Nc1nonc1NC(=O)CSc1nc2ccccc2o1,inactive
5,O=C(NC1CCCC1)c1ccc(CSc2nc3ccncc3n2Cc2ccccc2F)cc1,"inconclusive: 0.562 µM [inhibitor, full curve, poor fit]"
6,C#CCn1cc(/C=N/Nc2nc3ccccc3[nH]2)c2ccccc21,"inconclusive: 17.8 µM [inhibitor, single point]"
7,COc1cc(NC(=O)CN(C)S(=O)(=O)c2ccc3[nH]c4c(c3c2)CCCC4)cc(OC)c1OC,"inconclusive: 0.562 µM [inhibitor, full curve, poor fit]"
8,COc1ccc(OC2CCN(S(=O)(=O)c3ccc(OC)cc3)CC2)cc1,"inconclusive: 35.5 µM [inhibitor, single point]"
9,COc1ccc(C(C)(C)C)cc1NC(=O)c1cc(S(=O)(=O)N(C)C)ccc1N1CCCC1,inactive
10,Cc1ccc(N2NC(=O)/C(=C\c3cc4c(cc3[N+](=O)[O-])OCO4)C2=O)cc1C,inactive
11,Cc1cccc(S(=O)Cc2ccc(C(=O)NC3CCN(Cc4ccccc4)CC3)o2)c1 (stereo unspecified),"inconclusive: 11.2 µM [inhibitor, partial curve]"
12,O=C(OCc1ccccc1)N1CCC2CC1c1ccc(N3CCN(Cc4ccc5c(c4)OCO5)CC3)cc12 (stereo unspecified),"inconclusive: 22.4 µM [inhibitor, single point]"
13,CCOC(=O)[C@H]1[C@H]2COc3ccc(C)cc3[C@@H]2N2C(=O)CN(Cc3ccc(F)cc3)C(=O)[C@@]12C,"inconclusive: 35.5 µM [inhibitor, single point]"
14,CCOC(=O)c1cnc2c(C)c(Cl)ccc2c1Nc1ccc(C)cc1C,inactive
15,CCCNC(=O)CCn1nc(-c2ccc(Cl)cc2)c2ccccc2c1=O,"inconclusive: 35.5 µM [inhibitor, single point]"
16,O=C(CSc1cccc[n+]1[O-])CSc1cccc[n+]1[O-],"inconclusive: 7.94 µM [inhibitor, partial curve, poor fit]"
17,Cc1cccc(Cn2ncc(Cl)c(Cl)c2=O)c1,"inconclusive: 35.5 µM [inhibitor, partial curve, poor fit]"
18,COc1cccc(C(=O)Nc2ccc3oc(-c4ccc5ccccc5c4)nc3c2)c1,"inconclusive: 15.8 µM [inhibitor, single point]"
19,CCCC(=O)N1CCN(c2nc3ccccc3s2)CC1,inactive
20,Cc1cc(C)c(-c2csc(NC(=O)/C=C/c3cccs3)n2)c(C)c1,"inconclusive: 3.98 µM [inhibitor, single point]"
21,Cn1c(Cn2nnc3ccccc32)nnc1SCC(=O)N1c2ccccc2CCc2ccccc21,"inconclusive: 35.5 µM [inhibitor, single point]"
22,CCOC(=O)c1cc(NC(=O)COc2ccc([N+](=O)[O-])cc2)cc(C(=O)OCC)c1,"inconclusive: 1.58 µM [inhibitor, full curve]"

row,Structure (SMILES),Potency
1,CCc1ccc(-c2nc(CSCC(=O)N3CCN(c4ccccn4)CC3)c(C)o2)cc1,"inconclusive: 35.5 µM [inhibitor, single point]"
2,CC(C)C[C@H]1CNC(=S)N1C[C@H]1CCCN1C[C@H](Cc1ccccc1)N1C[C@H](CC(C)C)N(CCc2ccccc2)C1=S,"inconclusive: 3.98 µM [inhibitor, full curve, poor fit]"
3,CCS(=O)(=O)N1CCC2(CC1)OCCN2S(=O)(=O)c1ccc(OC)cc1,inactive
4,O=C(Nc1ccc2nc(SCC(=O)N3CCOCC3)sc2c1)c1ccc(F)cc1,inactive
5,Cc1ccc(SCc2[nH]nc3c2C(c2ccco2)C(C#N)=C(N)O3)cc1 (stereo unspecified),"inconclusive: 35.5 µM [inhibitor, single point]"
6,Cc1ccc(C(=O)Nc2nc(-c3ccccn3)cs2)s1,"inconclusive: 10 µM [inhibitor, partial curve]"
7,O=S1(=O)CCOC[C@H](CC2CCCCC2)N1Cc1ccccc1Br,active: 12.6 µM
8,COc1ccc(Cn2c(C(=O)O)c(CNCc3cccs3)c3ccc(C)cc32)cc1,"inconclusive: 35.5 µM [inhibitor, single point]"
9,CC(=O)c1c(O)cc(C)n(Nc2nc(C)cc(C)n2)c1=O,"inconclusive: 12.6 µM [inhibitor, partial curve]"
10,CCOc1ccc2c(c1)C(C)=CC(C)(C)N2S(=O)(=O)c1ccc(F)cc1,"inconclusive: 28.2 µM [inhibitor, single point]"
11,CCCc1nc(C)cc(N2CCN(c3ccccc3)CC2)n1,"inconclusive: 15.8 µM [inhibitor, single point]"
12,COc1cc2cncc(Cc3ccc(Cl)cc3)c2cc1OC,"inconclusive: 28.2 µM [inhibitor, single point]"
13,CN(Cc1ccccc1)C(=O)c1cccc(NC(=O)Cc2cccc(NC(=O)C3CCN(C(=O)c4ccccc4)CC3)c2)c1,inactive
14,O=C(Cc1ccc(-n2c(=O)[nH]c3ccccc3c2=O)cc1)N1CCN(c2cccc(Cl)c2)CC1,"inconclusive: 35.5 µM [inhibitor, single point]"
15,COc1ccccc1N1CCN(c2cc(N3CCCC3)nc(C)n2)CC1,"inconclusive: 12.6 µM [inhibitor, single point]"
16,Cc1nnc(NC(=O)c2ccc(S(=O)(=O)N(C)c3ccccc3)cc2)s1,"inconclusive: 35.5 µM [inhibitor, single point]"
17,O=C(CSc1nc2cc(C(=O)O)ccc2c(=O)n1-c1ccc(F)cc1)Nc1ccc(F)c(F)c1F,inactive
18,Cc1nn(-c2ccc([N+](=O)[O-])cc2)c2c1C(c1cccc(Br)c1)N1C(=N2)C(=O)Nc2ccccc21 (stereo unspecified),"inconclusive: 8.91 µM [inhibitor, partial curve, poor fit]"
19,O=C(Nc1nccs1)c1cccc2ccccc12,inactive
20,O=C(Nc1cccc(Cl)c1N1CCCC1)c1cc2ccccc2o1,"inconclusive: 35.5 µM [inhibitor, single point]"
21,CCOc1cc(N2CCOCC2)c(OCC)cc1NC(=O)c1cc(S(=O)(=O)N2CCOCC2)ccc1Cl,"inconclusive: 35.5 µM [inhibitor, single point]"
22,N/C(Cc1ccc(Cl)cc1Cl)=N\OC(=O)Cc1ccccc1,inactive

row,Structure (SMILES),Potency
1,COc1ccc(-c2c3c(=O)n(C)c(=O)n(C)c3c3c(-c4ccccc4)nc4ccccc4n23)cc1,inactive
2,Cc1ccc(S(=O)(=O)N2CCC(N3CCC(C)CC3)CC2)cc1,inactive
3,CC1CC(C)(C)NC(=S)N1CCCC(=O)NCCc1ccc(Cl)cc1 (stereo unspecified),inactive
4,Cc1nnsc1-c1onc(C)c1C(=O)O/N=C/c1ccc(Cl)cc1,inactive
5,CC(C)(C)OC(=O)[C@H](Cc1ccccc1)NC(=O)c1nc[nH]c1C(=O)N1CCN(c2ccccc2)CC1,"inconclusive: 5.62 µM [inhibitor, single point]"
6,O=C(NC1CCCCCCC1)C1CCN(c2nc3ccccc3o2)CC1,"inconclusive: 5.62 µM [inhibitor, single point]"
7,Cc1cccc(C(=O)Nc2cccc(C(=O)OCc3cc(=O)n4c5c(sc4n3)CCCC5)c2)c1,inactive
8,O=S(=O)(c1ccccc1Br)N(Cc1ccccc1)CC(O)COCc1ccccc1 (stereo unspecified),"inconclusive: 35.5 µM [inhibitor, single point]"
9,Cc1ccc([N+](=O)[O-])cc1S(=O)(=O)Nc1cccc(S(=O)(=O)NC2=NCCC2)c1,"inconclusive: 35.5 µM [inhibitor, single point]"
10,Cc1ccn2cc(-c3cccc(NC(=O)C(C)C)c3)nc2c1,inactive
11,CCn1ccnc1CN(C)C(=O)C1CCC(=O)N(Cc2cccc(C(F)(F)F)c2)C1 (stereo unspecified),inactive
12,Oc1ccc2ccccc2c1N=Nc1nccs1,"inconclusive: 25.1 µM [inhibitor, single point]"
13,Cc1ccc(S(=O)(=O)N2CCC(=O)N(C(COCc3cccc(C(F)(F)F)c3)Cc3ccccc3)CC2)cc1 (stereo unspecified),inactive
14,N#CC(c1ccccc1)N(CCCCl)C(=O)c1ccc(Br)cc1 (stereo unspecified),"inconclusive: 35.5 µM [inhibitor, single point]"
15,O=C(C[C@H]1C[C@@H]2c3cc(NS(=O)(=O)c4ccccc4)ccc3O[C@@H]2[C@H](CO)O1)NC1CCCC1,"inconclusive: 7.08 µM [inhibitor, partial curve]"
16,N#Cc1cccc(NC(=O)CCn2ccnc2)c1,"inconclusive: 35.5 µM [inhibitor, partial curve, poor fit]"
17,CCOC(=O)Cn1c(=O)oc2cc(S(=O)(=O)Nc3cc(OC)cc(OC)c3)ccc21,"inconclusive: 11.2 µM [inhibitor, partial curve, poor fit]"
18,Cc1ccc(NC(=O)N2CCC(=O)N2)cc1,"inconclusive: 35.5 µM [inhibitor, single point]"
19,COc1ccccc1C(=O)NCc1ccc2c(c1)CCN2C(=O)c1cccc(C)c1,inactive
20,CSCCC(c1nnnn1C1CCCCC1)N1CCN(C/C=C/c2ccccc2)CC1 (stereo unspecified),"inconclusive: 35.5 µM [inhibitor, single point]"
21,COC(=O)c1ccc(Cl)c(NC(=O)c2cccc([N+](=O)[O-])c2C)c1,inactive
22,Cn1c(=O)oc2cc(S(=O)(=O)N3CCC(C(=O)N4CCc5ccccc5C4)CC3)ccc21,"inconclusive: 0.794 µM [inhibitor, full curve, poor fit]"
